From PubChem BioAssay AID1476 (National Center for Advancing Translational Sciences (NCATS), 2009)
Among all 200,000 compounds or so, about 4,500 (2.2%) were called active. Inconclusive means that the source gave no clear call. Such entries were picked first, then a sample of the others. Calls come from the whole dose curve; as a rule, active = well fitted inhibition curve with a large enough effect; inconclusive = small, poorly fitted or top-dose-only effect, or effect the other way; inactive = flat fitted curve, though single readings scatter. A potency beside an inconclusive call is a rough fit, not a confirmed value.

Molecular target: Cruzipain (Trypanosoma cruzi) (UniProt P25779)
Chain of UniProt P25779 (P25779 whole entry, looked up): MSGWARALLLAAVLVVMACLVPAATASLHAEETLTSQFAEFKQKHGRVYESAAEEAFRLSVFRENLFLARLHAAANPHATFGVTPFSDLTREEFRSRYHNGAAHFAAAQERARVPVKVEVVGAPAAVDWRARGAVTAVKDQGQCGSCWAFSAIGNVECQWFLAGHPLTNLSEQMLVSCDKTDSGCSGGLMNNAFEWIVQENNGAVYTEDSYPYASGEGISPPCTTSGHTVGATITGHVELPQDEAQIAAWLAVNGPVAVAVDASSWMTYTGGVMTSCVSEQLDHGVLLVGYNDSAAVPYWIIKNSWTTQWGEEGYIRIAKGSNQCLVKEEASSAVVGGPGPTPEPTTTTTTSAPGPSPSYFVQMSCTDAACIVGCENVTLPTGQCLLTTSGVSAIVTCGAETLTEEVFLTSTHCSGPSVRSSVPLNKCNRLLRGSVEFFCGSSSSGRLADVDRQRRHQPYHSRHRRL
Assay: qHTS Assay for Promiscuous and Specific Inhibitors of Cruzain (without detergent); note: nearly all actives have a fitted effect of over 40% in size;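 for max response, negative = inhibition: plate controls were enzyme without inhibitor for no effect and buffer without enzyme for full effect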
Conditions: purified cruzain, Z-FR-AMC fluorescence, no detergent
How it was run: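 Detergent-free condition (0.00005% Triton X-100) in acetate buffer pH 5.5 with DTT. 1.5 nM enzyme and compound were pre-mixed 15 min, then 2 uM Z-FR-AMC substrate added; reaction progress from fluorescence change between first and third reads (60 s).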
Potency is the fitted concentration of half-maximal effect; tags give direction and shape of the fitted curve.

Structure (SMILES) | Potency | max response, negative = inhibition
Cc1ccc(NC(=O)c2cc(-c3cccs3)on2)cc1 | inconclusive: 39.8 µM [inhibitor, single point] | –
COc1ccc(CCN2C(=O)CC(Cc3ccc(Br)cc3)C2=O)cc1OC (stereo not given) | inconclusive: 25.1 µM [activator, single point] | –
COc1cc2c(cc1OC)C(C(=O)Nc1ccc3c(c1)OCCO3)C1c3ccccc3CCN1C2=O (stereo not given) | inconclusive: 39.8 µM [activator, single point] | –
CCOc1ccc(OCC)c(NS(=O)(=O)c2ccc3c(c2)CCN3C(=O)C2CCC2)c1 | inconclusive: 15.8 µM [activator, single point] | –
Cc1c(Cl)ccc2sc(N3CCN(C(=O)CS(=O)(=O)c4ccccc4)CC3)nc12 | – | inactive: 24.4%
Cc1cc([N+](=O)[O-])c2[nH]c(C(=O)N/N=C/c3ccccc3C(=O)O)c(-c3ccccc3)c2c1 | inconclusive: 12.6 µM [activator, partial curve] | –
COc1ccc(-c2cc(C(F)(F)F)nc(-n3cc(Cl)cn3)n2)cc1 | inconclusive: 25.1 µM [activator, single point] | –
CCCCN1C(=O)/C(=c2\sc3nc(=O)c(-c4ccccc4)nn3c2=O)c2ccccc21 | inconclusive: 20 µM [inhibitor, single point] | –
Nc1ccccc1-c1nnc(SCc2ccccc2Cl)[nH]c1=O | – | inactive: -11.6%
CCn1c(O)c(C=Nc2ccc(S(N)(=O)=O)cc2)c(=O)[nH]c1=S | inconclusive: 39.8 µM [inhibitor, single point] | –
O=[N+]([O-])c1ccc(N2CCN(S(=O)(=O)c3ccccc3)CC2)cc1NCc1ccco1 | inconclusive: 31.6 µM [inhibitor, single point] | –
COC(=O)c1cc2oc3ccccc3c2n1CC(=O)Nc1ccc(C)cc1C | – | inactive: 3.93%
Cc1cc(C)c(NC(=O)Cn2c(=O)n(Cc3ccc(C(=O)NCc4ccco4)cc3)c(=O)c3sccc32)c(C)c1 | – | inactive: 12.5%
O=C(c1cccc(COc2cccc3ccccc23)c1)N1CCCC1 | inconclusive: 39.8 µM [activator, single point] | –
Cc1ccn2cc(-c3ccc(C)c(NS(=O)(=O)c4ccc(Cl)cc4)c3)nc2c1 | inconclusive: 39.8 µM [inhibitor, single point] | –
COc1ccc(C)cc1Nc1nc(N)c2cc(OC)c(OC)cc2n1 | inconclusive: 10 µM [activator, partial curve] | –
CC(=O)c1cccc(NC(=O)c2nc(-c3ccccc3)n(-c3ccccc3C)n2)c1 | active: 7.94 µM | –
COc1ccc(C2c3cccn3CCN2S(=O)(=O)c2ccc([N+](=O)[O-])cc2)cc1 (stereo not given) | active: 25.1 µM | –
O=C(Nc1ccc(Cl)c(Cl)c1)c1csc(-c2ccccc2)n1 | inconclusive: 39.8 µM [inhibitor, single point] | –
Cc1nc2c(c(C)nn2-c2ccccc2)c(C)c1CCC(=O)NCc1ccccc1 | inconclusive: 39.8 µM [activator, single point] | –
CCN1C(=O)c2cccc3c(S(=O)(=O)Nc4ccc(OC)cc4OC)ccc1c23 | inconclusive: 39.8 µM [activator, single point] | –
O=C(COC(=O)c1ccc(Cl)c(S(=O)(=O)N2CCCCCC2)c1)Nc1ccccc1 | inconclusive: 2.51 µM [inhibitor, partial curve] | –

Structure (SMILES) | Potency | max response, negative = inhibition
C=CCNC(=O)NC(=O)COC(=O)/C(C#N)=C/c1cc(C)n(CC(C)C)c1C | inconclusive: 39.8 µM [activator, single point] | –
CCC1CN(C(=O)C2CCN(S(=O)(=O)c3c(C)noc3/C=C/c3ccccc3F)CC2)c2cc(C)ccc2O1 (stereo not given) | inconclusive: 7.94 µM [inhibitor, single point] | –
Cc1nn(C)c2c1c(C(F)(F)F)cc(=O)n2CC(=O)N1CCC(C)CC1 | inconclusive: 25.1 µM [activator, single point] | –
CC1CCN(S(=O)(=O)c2cc(C(=O)N3CCN(c4ccccc4F)CC3)n(C)c2)CC1 | inconclusive: 39.8 µM [activator, single point] | –
CC(C)c1ccc(CN(C(=O)C2COc3ccccc3O2)C2CCS(=O)(=O)C2)cc1 (stereo not given) | inconclusive: 25.1 µM [activator, single point] | –
CCOC(=O)C1CCN(C(=O)c2nn(-c3ccc(OC)cc3)c(=O)c3c2c2ccccc2n3C)CC1 | – | inactive: -2.62%
COc1ccc(C2CC(=O)N(CC(=O)Nc3cccc(C)c3C)c3ccccc3S2)cc1OC (stereo not given) | inconclusive: 20 µM [activator, partial curve] | –
CCOc1ccc(NC(=S)N(CCc2c(C)[nH]c3ccc(C)cc23)Cc2cccnc2)cc1 | inconclusive: 39.8 µM [inhibitor, single point] | –
COC(=O)CSc1nnc2n(-c3ccc(OC)cc3)c(=O)c3c4c(sc3n12)CCCCC4 | inconclusive: 31.6 µM [activator, single point] | –
O=C(c1ccccc1C(=O)N1CCN(c2ccc(F)cc2)CC1)N1CCN(c2ccc(F)cc2)CC1 | inconclusive: 31.6 µM [activator, single point] | –
Cc1ccc(S(=O)(=O)Nc2ccc(-c3nc4ccc(C)cc4s3)cc2)cc1 | inconclusive: 39.8 µM [inhibitor, single point] | –
CCOc1ccc(Nc2oc(-c3ccc(COc4ccccc4C)o3)nc2C#N)cc1 | inconclusive: 31.6 µM [inhibitor, single point] | –
CCCNC(=O)OCC12CC3CC(CC(C3)C1)C2 | – | inactive: 1.18%
O=C(Nc1ccc([N+](=O)[O-])cc1)C1C(c2ccccc2)=C1c1ccccc1 | inconclusive: 39.8 µM [inhibitor, single point] | –
Cc1cccc(CC2S/C(=N/c3ccccn3)NC2=O)c1 (stereo not given) | – | inactive: 1.39%
Cc1nnc(SCC(=O)Nc2nc3c(s2)CC(C)CC3)s1 (stereo not given) | inconclusive: 25.1 µM [inhibitor, single point] | –
COc1ccc(CNCCSc2nnnn2-c2ccccc2)c(OC)c1 | – | inactive: -0.437%
COC(=O)c1ccc(C(NC(=O)OCc2ccccc2)/C(C)=C/[C@@H](C)C(=O)NC2CCCCC2)cc1 (stereo not given in full) | – | inactive: -0.919%
Cc1ccc(CNC(=O)CN2C(=O)C3(SCC(=O)N3c3cc(C)cc(C)c3)c3ccccc32)cc1 (stereo not given) | – | inactive: -26.4%
Cc1cccc(C2=NCC(=O)N(CC(=O)NCc3ccco3)c3sc4c(c32)CCCC4)c1 | inconclusive: 12.6 µM [activator, single point] | –
CCc1ccccc1NC(=O)Cn1nnc(C(=O)NCc2cccs2)c1N | active: 20 µM | –
Cc1ccsc1/C=C1/SC(N2CC(C)OC(C)C2)=NC1=O (stereo not given) | – | inactive: 2.15%

Structure (SMILES) | Potency | max response, negative = inhibition
Oc1ccc(Cl)cc1-c1cc(-c2ccccc2Cl)[nH]n1 | inconclusive: 39.8 µM [inhibitor, single point] | –
CCCC(C)C(=O)Nc1nc(C)c(-c2csc(Nc3ccc(Cl)cc3)n2)s1 (stereo not given) | active: 10 µM | –
COc1cc(NC(=O)c2cc(-c3ccc(Cl)c(Cl)c3)on2)cc(OC)c1OC | inconclusive: 3.16 µM [activator, single point] | –
COC(=O)c1ccc(NC(=O)CSc2nnc(COc3c(C)cccc3C)o2)cc1 | active: 25.1 µM | –
CC(=O)NCC(=O)OCC(=O)c1ccccc1 | – | inactive: -4.09%
Cc1ccsc1-c1nc(CSCC(=O)N2CCN(c3ccccc3)CC2)c(C)o1 | inconclusive: 39.8 µM [activator, single point] | –
COCCNc1nc(-c2ccccc2Cl)nc2ccccc12 | – | inactive: 6.61%
COc1ccccc1NS(=O)(=O)c1cc(NC(=O)Nc2cccc(C)c2)ccc1N1CCCCC1 | active: 5.01 µM | –
CCOC(=O)c1ccc(N2CSC3=C(C#N)C(c4ccc(OC)cc4OC)CC(=O)N3C2)cc1 (stereo not given) | inconclusive: 39.8 µM [inhibitor, single point] | –
CCCCOC(=O)c1ccc(Nc2nc3ccccc3c3nnc(C)n23)cc1 | inconclusive: 10 µM [activator, partial curve] | –
CC(=O)N=c1n(C)c2ccccc2n1CCOc1ccccc1 | – | inactive: 5.41%
CCOc1ccccc1N=c1oc2cc(O)ccc2cc1C(=O)NCC1CCCO1 (stereo not given) | inconclusive: 31.6 µM [activator, partial curve] | –
O=C(Nc1ccc(Cl)cc1)OCc1cc(-c2ccccc2)on1 | inconclusive: 39.8 µM [inhibitor, single point] | –
Cc1ccc(C(=O)N/C(=C\c2ccc([N+](=O)[O-])cc2)C(=O)NCCc2ccccc2)cc1 | inconclusive: 39.8 µM [inhibitor, single point] | –
Cc1ccc2nc(N3CCC(C(=O)N4CCC5(CC4)OCCO5)CC3)sc2c1 | inconclusive: 31.6 µM [activator, single point] | –
O=C(CN1CCN(c2ccccc2)CC1)Nc1ccc2c(c1)CCC2 | – | inactive: 1.48%
CCc1ccc(N2CCn3c2nc2c3c(=O)n(Cc3c(F)cccc3Cl)c(=O)n2C)cc1 | – | inactive: -3.7%
COc1ccc(-c2c3c(=O)n(C)c(=O)n(C)c3cn2NC(C)=O)cc1 | – | inactive: -4.34%
COc1ccc(S(=O)(=O)NCc2ccc3c(c2)CCN3C(=O)c2ccc(C)cc2)cc1Cl | inconclusive: 39.8 µM [inhibitor, single point] | –
CCc1nc2c(sc3nc4c(cc32)COC(C)(C)C4)c(=O)n1Cc1ccco1 | inconclusive: 39.8 µM [activator, single point] | –
Cc1cc(C)cc(-n2ccnc2SCC(=O)Nc2ccc3c(c2)OCO3)c1 | – | inactive: -15.5%
